# According to the supplement of paper PMC3334620:
# In all, about 33,000 sequences were measured (“E-score (-0.5 to 0.5)”: median about -0.036, highest 2% from about 0.37 on). The list shows a part of the results.
# Target: T1, Yer064c (UniProt P40041)
# T1 sequence: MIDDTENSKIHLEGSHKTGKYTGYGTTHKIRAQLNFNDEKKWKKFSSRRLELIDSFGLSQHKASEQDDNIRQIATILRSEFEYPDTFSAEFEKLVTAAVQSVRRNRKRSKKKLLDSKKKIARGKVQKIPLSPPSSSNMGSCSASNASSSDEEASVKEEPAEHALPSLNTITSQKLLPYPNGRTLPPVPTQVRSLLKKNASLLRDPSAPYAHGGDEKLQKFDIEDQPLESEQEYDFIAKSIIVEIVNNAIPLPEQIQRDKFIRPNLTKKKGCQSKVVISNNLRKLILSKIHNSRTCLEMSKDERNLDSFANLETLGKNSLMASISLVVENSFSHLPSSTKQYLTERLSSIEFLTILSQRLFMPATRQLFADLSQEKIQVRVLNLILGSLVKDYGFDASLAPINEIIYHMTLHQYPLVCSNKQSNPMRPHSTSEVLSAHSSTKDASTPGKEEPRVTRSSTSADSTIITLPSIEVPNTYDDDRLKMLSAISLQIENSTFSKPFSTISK
# Experiment: PBM E-score (8-mer binding enrichment) (E-score (-0.5 to 0.5)); higher = stronger / more preferred TF binding; most listed sequences are background and not binding sites
# Conditions: protein concentration: 200 nM; construct: GST-full length
# Summary of the method: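 GST-tagged yeast TFs (full-length or DNA-binding domain) were made by PURExpress in vitro transcription/translation and applied at about 100-200 nM to universal all-10-mer Agilent arrays. The arrays were made double-stranded by primer extension, on fresh or once-stripped slides. Bound protein was detected with fluorescent anti-GST, and scans were normalised with masliner. Each ungapped eight-base word, pooled with its reverse complement, received an E-score (modified Wilcoxon-Mann-Whitney statistic) from the Universal PBM Analysis Suite.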
row,Sequence,PBM E-score
1,AGAAGTGC,-0.381
2,AATCAACC,0.273
3,AACCTCGA,-0.153
4,CTAAGAGC,-0.23
5,AGGCCCAC,-0.315
6,AAGCCGAC,-0.0186
7,AACTTGGA,-0.149
8,ACTTCCGA,0.00292
9,CCACCTCC,-0.283
10,GAATACGC,-0.106
11,ACCGTCAA,-0.17
12,CGTTCAGC,-0.155
13,AACCGCGA,0.0631
14,AGGGCGAC,-0.0248
15,GGGATGAC,0.198
16,TCACCGCA,0.0844
17,CCAGCTGG,-0.0805
18,GAACATAA,-0.134
19,CGTCATAG,-0.0141
20,CGGCCTGC,-0.278
21,TCGGGTAA,-0.033
22,ATGGCCGA,-0.0927
23,GGCGGCAA,-0.227
24,GCCTAAAC,-0.0176
25,GCGGAGAC,0.161

row,Sequence,PBM E-score
1,AGCGCGTG,-0.0222
2,AGTAGTGC,-0.0503
3,GTGTCTGA,0.197
4,CGGAAGCC,-0.341
5,AGTGGCGA,0.0753
6,GCAACATA,-0.138
7,GTGTCCTA,0.0401
8,GCGAAGAA,-0.0771
9,ATTCCACG,-0.0197
10,TGACACCA,0.0885
11,TCGAATAA,-0.00971
12,CGCCCAAG,-0.0982
13,CTCGGTCC,-0.0661
14,CCAGACAC,-0.27
15,CTAAACTA,0.0923
16,CATCGCCC,-0.0376
17,CGTGATAG,0.0489
18,CATTACCC,0.0868
19,CGGTTACA,-0.0508
20,TGATTAAA,0.418
21,ACCGAGAT,-0.00548
22,ACAGGCTA,-0.154
23,ATTTTAAG,0.0231
24,CATTTTCG,0.0515
25,AGGTAACG,-0.0878

row,Sequence,PBM E-score
1,AAGGGCGT,-0.144
2,CACTCTCG,0.0082
3,GGATAGAA,-0.0854
4,CCTGCGAG,-0.0918
5,GCTAGACA,0.0623
6,GCCCTGCA,-0.179
7,CGGCTGTA,-0.0797
8,AACCGAAG,0.206
9,AGACGTAA,0.0987
10,AAGATACC,0.015
11,CTCCTGAA,-0.152
12,ATCCATTG,0.122
13,GGCATGGA,-0.152
14,CTGAATGC,-0.199
15,AGCGCCAG,-0.038
16,CCTGTCAA,0.0361
17,ACTCAGGC,0.331
18,GTTATGTA,-0.0587
19,AGCACCCT,-0.168
20,CACACTCC,-0.158
21,ACAGGGCG,-0.224
22,TCCAGGGA,-0.0169
23,AGGAGCTG,-0.148
24,AAGGGCGA,-0.145
25,ATCCCGTG,0.0256

row,Sequence,PBM E-score
1,AACATATC,-0.178
2,GCTCGGGA,-0.0507
3,CGGGAGAC,0.106
4,GATACGTA,0.0194
5,ATGTGTGA,0.167
6,ATCTTTCC,-0.0758
7,AAGTAATC,0.336
8,CAAGGTCA,0.11
9,ATTCTCGC,-0.124
10,AGTGAAAG,-0.0856
11,CCATGCCA,-0.113
12,ATGAACAT,0.00334
13,CAAACTAG,0.00734
14,AGGTGCCC,-0.26
15,CAGGATAG,-0.0344
16,ATCTTGGC,0.0855
17,GAACAGTC,0.203
18,AGAAAGAG,0.00362
19,CCCGTTTC,-0.434
20,CTCCTCGC,-0.137
21,ATATGCGG,-0.188
22,AGCCGCTC,-0.221
23,ACGGAGTG,-0.215
24,AGCGCCAT,-0.345
25,CAAGTACC,-0.0773

row,Sequence,PBM E-score
1,AGGTCGGC,-0.0326
2,AACTCTAG,0.0266
3,AGATCCCT,-0.196
4,AGCCGCTG,-0.132
5,CACCTTCA,-0.299
6,ACCCGTGA,0.17
7,CTGCTAAC,0.0214
8,ACCACACC,-0.0812
9,GGGACCCC,-0.282
10,AAGGAGGT,-0.236
11,ACTCCAAA,0.197
12,CTTCCCTA,-0.166
13,ACCATCCC,-0.0582
14,AGTTGCCA,-0.223
15,CCTGTCGA,-0.125
16,CTGGTAAC,-0.0807
17,AAAATGAG,0.264
18,AATGACGG,-0.102
19,CACTGTGC,0.0911
20,CACAGGGG,0.0318
21,ATCGCTAG,-0.0983
22,GGGGAAGA,-0.177
23,TGCGAACA,-0.0364
24,AGTAGAAG,-0.158
25,AAGACAGT,0.172

row,Sequence,PBM E-score
1,ACAGGGGC,-0.231
2,CCCCGAAC,-0.178
3,CAGTGGTA,-0.123
4,AAGGGGAA,-0.287
5,AATCTGGG,-0.183
6,ATAAGCGG,0.0739
7,GCACCCAC,0.0735
8,AACAGACT,0.176
9,AGCTAGGA,-0.0898
10,ACTAGGAT,0.222
11,CCCGTACC,-0.31
12,CAGTTAGC,-0.147
13,AACGATCA,0.0743
14,AAACTGAG,0.144
15,GTGGCCGA,-0.141
16,AGCAGGAC,-0.108
17,GTGGATTA,-0.0636
18,CACTCAGA,0.0961
19,TATGTGGA,0.0736
20,ATGACCGG,-0.128
21,GATTCTCC,0.215
22,AGTATTTC,0.0118
23,CCCCTGAC,0.173
24,CCCTTCAA,-0.0771
25,AAACTCGT,-0.0123

row,Sequence,PBM E-score
1,TAGGAGAA,-0.0604
2,AAATCGGT,-0.108
3,ACTCGAGC,0.0418
4,AACGTTTC,-0.21
5,CGCAGAAA,-0.0505
6,GGTAGTGA,0.0671
7,GGACGACA,-0.0297
8,CAGTAAAG,0.0694
9,ATTGGCCC,-0.172
10,CCGCGGAC,-0.0248
11,CACCAGCG,-0.128
12,AACTTAAA,0.117
13,ATACTACA,0.0739
14,AATGAGAG,-0.112
15,AACACTGT,-0.0707
16,CTTGCCCA,-0.11
17,GACGGAAA,0.00096
18,ACACGGGG,-0.249
19,AGTCAGTG,0.427
20,AGGAAACC,-0.158
21,AAATTTCG,-0.109
22,AGCAGCCT,-0.284
23,GGGTAAAA,0.127
24,CCGTAAAA,0.00527
25,CCCCCGCG,-0.257

row,Sequence,PBM E-score
1,CAGCAAAA,-0.18
2,GCATTCGA,-0.0637
3,TCGTCTCA,0.0637
4,CTCTTACC,0.0718
5,AAAGCTAC,-0.162
6,CACCAACG,-0.0961
7,CTCCTCTA,-0.0335
8,CTTAAAAC,0.0823
9,CGCCGGCG,0.22
10,CGCTAGAC,-0.0529
11,CATTAAAG,-0.0357
12,ACAACACC,-0.0036
13,AATCGGGT,0.0223
14,CAGTCGTA,0.265
15,GGCCCCCC,-0.349
16,GAAATAGA,0.0343
17,GTCTCGCA,0.174
18,GAAGTACC,-0.122
19,AGACCGTC,-0.26
20,CCTCCGCG,-0.249
21,TATAGAAA,0.0536
22,AAAGTACC,-0.0733
23,CCGATGTA,-0.124
24,CTTCTACC,-0.118
25,ATAGCCAC,0.128

row,Sequence,PBM E-score
1,ACATAGGC,-0.294
2,CTGCGGCC,-0.379
3,CTGCGGGC,-0.0933
4,AATATCAG,-0.124
5,ACTATAGT,0.259
6,GTTCGCAA,0.102
7,ATCGAAAA,-0.0181
8,CTGAAATA,0.0578
9,AACCTTCC,-0.153
10,GCGTCACC,-0.232
11,CAGAAACG,-0.112
12,TAATTACA,0.0531
13,AAAGTTTA,0.00518
14,GATGAAAC,0.0107
15,CGGGCGCA,-0.168
16,GGTTTACA,-0.0888
17,AGCGGGGC,-0.247
18,ACCATACG,-0.0624
19,AGCGAATG,-0.188
